{"source": "patent US9464075B2", "about": "(priority 2008, dated 2016)", "tested_on": "wild-type influenza virus (A/Udorn/72)", "type": "cell-based", "data": [{"smiles": "C1CCC2(CC1)CCN(C1=NCCN1)CC2", "note": "[BL-1743, 3-(4,5-Dihydro-1H-imidazol-2-yl)-3-aza-spiro[5.5]undecane, reference compound]", "values": [{"measurement": "concentration at which plaque formation was inhibited", "result": "50 to 100", "unit": "µM"}]}]}
